Screen size: about 220,000 compounds; about 16,000 (7.3%) were called active. Inconclusive results, whose numbers are uncertain, are shown with a selection of clear calls. The call rests on the fitted dose curve; in most records, active means well fitted inhibition curve with a large enough effect (not every such curve was filed as active); inconclusive means small, poorly fitted or top-dose-only effect, or another doubt; inactive means no such curve, though single readings can be large or run the other way. Potencies of inconclusive entries are doubtful fits and often do not repeat.
What follows are compounds tested against Aldehyde dehydrogenase 1A1 (Homo sapiens) (UniProt P00352) (assay: qHTS Assay for Inhibitors of Aldehyde Dehydrogenase 1 (ALDH1A1)). Conditions: Purified ALDH1A1, NADH fluorescence, propionaldehyde substrate; series mostly up to 75.3 µM; activity, negative = inhibition: at the top concentration.
Potency means the concentration at half of the fitted maximal effect; tags describe the fitted curve by direction and shape.
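Wherever activity, negative = inhibition is given: plate controls were no enzyme wells and a reference inhibitor.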

UniProt P00352, sequence (P00352 whole entry, looked up): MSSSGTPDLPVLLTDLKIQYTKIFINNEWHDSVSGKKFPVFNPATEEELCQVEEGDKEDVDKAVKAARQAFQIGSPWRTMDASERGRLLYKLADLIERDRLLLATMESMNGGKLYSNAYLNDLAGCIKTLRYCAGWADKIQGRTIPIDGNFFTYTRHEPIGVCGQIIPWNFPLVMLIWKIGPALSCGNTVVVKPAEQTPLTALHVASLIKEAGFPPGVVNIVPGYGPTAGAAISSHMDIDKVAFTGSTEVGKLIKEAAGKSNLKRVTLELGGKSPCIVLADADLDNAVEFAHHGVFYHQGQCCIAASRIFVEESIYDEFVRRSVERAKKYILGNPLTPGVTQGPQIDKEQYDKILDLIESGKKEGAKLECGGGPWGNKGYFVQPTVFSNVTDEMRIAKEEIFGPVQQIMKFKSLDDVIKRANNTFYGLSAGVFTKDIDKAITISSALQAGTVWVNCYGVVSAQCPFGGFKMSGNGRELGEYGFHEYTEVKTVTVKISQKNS

activity, negative = inhibition, inactive:
O=C(CC12CC3CC(C1)CC(CC(=O)N1CCCC1)(C3)C2)N1CCCC1 0.524%, CCN1CCC(NC(=O)Nc2cccc(C(F)(F)F)c2)CC1 2.98%, COc1ccccc1C(=O)Nc1ccc(C(=O)O)cc1 2.41%, Nc1ncnc2c1ncn2[C@H]1O[C@@H](CO)[C@@H](O)[C@H]1N 5.25% [at 13.5 µM], CC(C)(C)C(=O)NC(=S)Nc1ccccc1N1CCCC1 3.17%, CCC(=C(c1ccc(OC)cc1)c1ccc(OC)cc1)c1cn(CC(O)CN2CCN(C)CC2)c2ccccc12 (configuration not stated) -14%, COC(CNC(=O)CCc1c(C)nc2c(-c3ccc(F)cc3)c(C)nn2c1C)OC 14.3%, Cc1ccccc1-c1ccccc1N 9.41%, CCOc1ccccc1NC(=O)CSc1nnnn1-c1ccc(C(=O)OC)cc1 -4.93%, CCOC(=O)N1CCN(C(=O)c2ccc(OC)c(S(=O)(=O)N3CCOCC3)c2)CC1 -3.67%, COc1ccc(Br)c(C(=O)NCCC(C)C)c1 5.98%, COCCCN1C(=O)C(=O)/C(=C(/O)c2ccc(OC(C)C)c(C)c2)C1c1ccncc1 (configuration not stated) -0.0688%, Cc1nc2ccc(S(=O)(=O)NC(C(=O)N3CCCC3)C(C)C)cc2s1 (configuration not stated) 8.21%, CCOc1ccc2nc(SCc3ccc(OC)cc3)sc2c1 -10.6%, COc1ccccc1C(=O)Oc1cc(C)[nH]c(=O)c1[N+](=O)[O-] 4.76%, Cc1nnc(NC(=O)Cn2nc(C)c3ccccc3c2=O)s1 10.2%, Cn1c(=O)c2c(ncn2CCCc2ccccc2)n(C)c1=O -7.54%, CCC1(C)Cc2c(sc3nc(SC)[nH]c(=O)c23)CO1 (configuration not stated) 0.569%, C=C[C@@]1(C)CC[C@H](O)[C@H]2C(=O)CCC[C@@H]21 9.96%, CC(C)(C)C(=O)N(Cc1ccccc1)c1ccccn1 -3.2%, COc1ccc(CCNC(=O)CSc2cccc3cccnc23)cc1OC 8%

Potency, inconclusive:
CSc1ccccc1NC(=O)Cn1nc([N+](=O)[O-])cc1C 20 µM [inhibitor, partial curve], CC(=O)/C(N=Nc1ccc2c(c1)OCCO2)=C(\C)O 28.2 µM [inhibitor, single point], CCN(CC)S(=O)(=O)c1ccc(NC(=O)CN(c2cccc(C)c2)S(C)(=O)=O)cc1 39.8 µM [inhibitor, single point], O=C(N/N=C/c1cc2cc3c(cc2nc1Cl)OCCO3)c1ccccc1O 44.7 µM [inhibitor, single point], Cc1ccc(C(C(=O)NCCc2ccccc2)N(C(=O)c2csnn2)C2CC2)o1 (configuration not stated) 39.8 µM [inhibitor, single point], CCOC(=O)c1c(NC(=O)CCC(=O)NCc2ccco2)sc2c1CCCC2 11.2 µM [inhibitor, partial curve, poor fit], N#Cc1cc2c(nc1SC1CCCCC1O)CCCC2 (configuration not stated) 7.94 µM [inhibitor, full curve, poor fit], CC1(C)CC(=O)C(C(=O)CCCCC(=O)C2C(=O)CC(C)(C)CC2=O)C(=O)C1 28.2 µM [inhibitor, single point], Cc1cc(=O)[nH]c(SCC(=O)N2CCCCCC2)n1 31.6 µM [inhibitor, single point], Cc1cc(/C=C\c2nc(O)c([N+](=O)[O-])c(=O)[nH]2)c(C)n1-c1ccccc1 39.8 µM [inhibitor, single point], Cc1cc(=O)[nH]c(SCC(=O)N2CCN(C(c3ccccc3)c3ccccc3)CC2)n1 39.8 µM [inhibitor, single point], Cc1ccc(Cl)cc1NC(=S)N(Cc1cccs1)C1CCCC1 39.8 µM [inhibitor, single point], Cc1cccc2sc(N(CCCN(C)C)C(=O)c3nc4ccccc4s3)nc12 37.7 µM [inhibitor, single point], CSCC[C@H](NC(=O)OC(C)(C)C)C(=O)N/N=C/c1cccc2cccnc12 14.1 µM [inhibitor, partial curve], CC1CCCN(S(=O)(=O)c2ccc(C(=O)Nc3nnc(-c4ccccn4)o3)cc2)C1 (configuration not stated) 39.8 µM [inhibitor, single point], CCc1cccc2nc3c(c([Si](CC)(CC)CC)c12)Cn1c-3cccc1=O 25.1 µM [inhibitor, partial curve], CCCOc1ccc([N+](=O)[O-])cc1C1NC(=S)NC(c2ccccc2)=C1C(=O)OCC (configuration not stated) 17.8 µM [inhibitor, partial curve], COC(=O)c1nn(-c2ccc(C)cc2)ccc1=O 39.8 µM [inhibitor, single point], CCOC(=O)c1c(C)c(C(=O)NCC2CCCO2)c(C)n1CC (configuration not stated) 39.8 µM [inhibitor, single point], COc1ccc(OC)c(C2C(C(=O)Nc3nc4ccccc4s3)=C(C)NC3=C2C(=O)CCC3)c1 (configuration not stated) 28.2 µM [inhibitor, partial curve], CCCCn1c(=NC(=O)c2cccnc2)c(C#N)cc2c(=O)n3cccc(C)c3nc21 11.2 µM [inhibitor, partial curve], O=C(CCc1ccccc1)NC(=S)Nc1ccccc1Br 39.8 µM [inhibitor, single point], CC(=O)N1CCC2(CC1)CCN(c1ccccn1)CC2 39.8 µM [inhibitor, single point], CNC(=S)N1N=C(c2ccc(Br)cc2)CC1c1ccc(N(C)C)cc1 (configuration not stated) 31.6 µM [inhibitor, single point], CC1Cc2cc(/C(O)=C3/C(=O)C(=O)N(CCCn4ccnc4)C3c3ccco3)ccc2O1 (configuration not stated) 39.8 µM [inhibitor, single point], O=C(NCCN1CCN(c2ccccc2)CC1)C1(S(=O)(=O)c2ccc(Cl)cc2)CC1 17.8 µM [inhibitor, partial curve], CCNc1ncc2ncc(=O)n(C[C@H]3CCCO3)c2n1 31.6 µM [inhibitor, partial curve], CN1N=C(C(=O)N2CCN(c3ccc([N+](=O)[O-])cc3)CC2)CCC1=O 39.8 µM [inhibitor, single point], Cc1nn(-c2ccccc2)c2sc(C(=O)C(C#N)c3ccccn3)cc12 (configuration not stated) 0.794 µM [inhibitor, full curve], O=C(Nc1cccc(S(=O)(=O)N2CCOCC2)c1)c1cn(-c2ccccc2)nc1-c1ccccc1 25.1 µM [inhibitor, partial curve], CCC(=O)N=c1sc2c(C)cc(C)cc2n1CC(=O)OC 31.6 µM [inhibitor, partial curve], CCN(CC)CC(=O)Nc1nn(-c2ccccc2)nc1C(N)=O 22.4 µM [inhibitor, single point], N#CC(=C1CCCC1)c1nc(-c2ccc(Cl)cc2)cs1 39.8 µM [inhibitor, single point], Cc1ccc2[nH]c(=O)c(C(c3nnnn3C(C)(C)C)N3CCN(C(=O)c4ccco4)CC3)cc2c1 (configuration not stated) 14.1 µM [inhibitor, partial curve], Cc1ccc(-n2ncc(C#N)c2/N=C/N2CCCCCC2)cc1 28.2 µM [inhibitor, partial curve], CCNc1nc(C)c2cc(Br)c(=O)n(CC)c2n1 35.5 µM [inhibitor, partial curve], Cc1sc(NC(=O)C2CCCCC2)c(C#N)c1-c1ccccc1 22.4 µM [inhibitor, single point], CCOC(=O)CSc1nc2ccccc2c(=O)n1CC1CCCC1 25.1 µM [inhibitor, partial curve], COc1ccc2c(CC(=O)Nc3ccccc3N3CCOCC3)coc2c1 39.8 µM [inhibitor, single point], c1ccc(CNc2nc(-c3cccnc3)cs2)cc1 25.1 µM [inhibitor, single point], O=C(CCCc1ccc(-c2ccccc2F)cc1)Nc1ccc(O)cc1 39.8 µM [inhibitor, single point]

Potency, active:
CC(C)=CCN1CCN(Cc2cnc(N3CCOCC3)s2)CC1CCO (configuration not stated) 25.1 µM, C=CCOc1ccc(C(=O)N(Cc2ccc(N(C)C)cc2)C2CCS(=O)(=O)C2)cc1 (configuration not stated) 10 µM, Cc1ccc(NCC(=O)N/N=C/c2cc3ccccc3nc2Cl)cc1 10 µM, CCN(CC)S(=O)(=O)c1cccc(C(=O)OCC(=O)Nc2ccc3c(c2)c2ccccc2n3CC)c1 22.4 µM, COc1ccc(N2C(=O)CCC(C(=O)Nc3cccc(C)n3)C2c2ccc(OC)c(OC)c2)cc1 (configuration not stated) 22.4 µM, [O-]/[N+](=C\c1ccncc1)c1ccc(Br)cc1 1.12 µM, NC(=S)c1ccc[n+]([C@@H]2O[C@@H](COP(=O)([O-])OP(=O)(O)OC[C@H]3O[C@@H](n4cnc5c(N)ncnc54)[C@H](OP(=O)(O)O)[C@H]3O)C(O)C2O)c1 (some centres not stated) 28.2 µM, COCCNc1nc(-c2ccc(OC)cc2)c(-c2ccc(OC)cc2)s1 28.2 µM, Oc1c(Cl)cc(Cl)cc1/C=N/c1nccs1 14.1 µM, COc1cccc(OCCCCCCN2CCOCC2)c1 3.98 µM
